# No constants are given. Whether binding was seen depends on the method and setting. Binding seen in cells or lysates may run through a third protein. Some entries that bind do so weakly or less than the wild type.
# The chains behind the UniProt entries cited, without tags or fusion partners.
# UniProt P51150: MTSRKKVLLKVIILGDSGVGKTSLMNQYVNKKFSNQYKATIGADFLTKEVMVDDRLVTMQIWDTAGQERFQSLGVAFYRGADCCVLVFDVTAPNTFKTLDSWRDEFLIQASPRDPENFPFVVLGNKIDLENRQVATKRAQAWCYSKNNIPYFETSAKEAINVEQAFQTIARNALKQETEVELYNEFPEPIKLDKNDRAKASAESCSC
# UniProt P63044: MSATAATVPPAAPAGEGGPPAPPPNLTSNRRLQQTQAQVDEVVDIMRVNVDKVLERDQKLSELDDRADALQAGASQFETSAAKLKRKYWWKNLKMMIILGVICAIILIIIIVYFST
# T1: Esyt1 (mouse) (UniProt Q3U7R1)
# T1 sequence: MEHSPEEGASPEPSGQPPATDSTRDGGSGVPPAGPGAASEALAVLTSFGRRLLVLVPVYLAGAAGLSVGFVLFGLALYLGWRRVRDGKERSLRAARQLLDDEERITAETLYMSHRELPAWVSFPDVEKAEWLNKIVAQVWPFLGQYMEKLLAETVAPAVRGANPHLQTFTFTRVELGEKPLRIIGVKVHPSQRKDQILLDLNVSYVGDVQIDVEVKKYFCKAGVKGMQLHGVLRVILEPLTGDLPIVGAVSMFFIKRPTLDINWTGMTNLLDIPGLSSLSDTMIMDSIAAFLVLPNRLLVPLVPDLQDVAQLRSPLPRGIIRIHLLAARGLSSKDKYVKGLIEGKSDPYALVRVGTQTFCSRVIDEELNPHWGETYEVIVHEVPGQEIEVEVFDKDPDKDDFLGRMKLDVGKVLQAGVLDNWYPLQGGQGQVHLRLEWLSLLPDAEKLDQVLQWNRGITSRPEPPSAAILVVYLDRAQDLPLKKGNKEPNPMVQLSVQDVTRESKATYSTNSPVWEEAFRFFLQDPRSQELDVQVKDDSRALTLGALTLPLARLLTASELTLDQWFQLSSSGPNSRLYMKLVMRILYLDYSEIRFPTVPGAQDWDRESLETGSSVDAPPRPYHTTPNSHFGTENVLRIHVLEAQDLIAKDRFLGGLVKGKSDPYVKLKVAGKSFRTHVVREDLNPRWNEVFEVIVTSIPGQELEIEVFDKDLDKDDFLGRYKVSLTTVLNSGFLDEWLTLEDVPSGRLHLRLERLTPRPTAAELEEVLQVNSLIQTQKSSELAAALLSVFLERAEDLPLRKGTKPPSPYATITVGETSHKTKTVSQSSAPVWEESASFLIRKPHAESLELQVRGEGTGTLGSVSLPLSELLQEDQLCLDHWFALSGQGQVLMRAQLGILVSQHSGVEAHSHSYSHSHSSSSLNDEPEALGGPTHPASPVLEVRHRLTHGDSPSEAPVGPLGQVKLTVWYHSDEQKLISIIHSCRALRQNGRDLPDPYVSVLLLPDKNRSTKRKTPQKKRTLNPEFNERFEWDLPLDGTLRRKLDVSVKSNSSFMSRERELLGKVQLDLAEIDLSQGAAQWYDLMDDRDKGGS
# T2: Snap47 (mouse) (UniProt Q8R570)
# T2 sequence: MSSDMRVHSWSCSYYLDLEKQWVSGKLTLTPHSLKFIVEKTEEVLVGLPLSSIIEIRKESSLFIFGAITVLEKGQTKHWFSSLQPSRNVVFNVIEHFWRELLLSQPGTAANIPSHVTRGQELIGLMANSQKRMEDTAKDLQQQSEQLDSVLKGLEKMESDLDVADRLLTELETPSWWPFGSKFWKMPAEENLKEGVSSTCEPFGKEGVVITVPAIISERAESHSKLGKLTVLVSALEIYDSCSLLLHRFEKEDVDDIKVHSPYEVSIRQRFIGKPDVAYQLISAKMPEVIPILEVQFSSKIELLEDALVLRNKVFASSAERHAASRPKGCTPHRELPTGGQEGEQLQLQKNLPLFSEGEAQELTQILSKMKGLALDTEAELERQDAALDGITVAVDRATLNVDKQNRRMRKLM
# T3: Stx18 (mouse) (UniProt Q8VDS8)
# T3 sequence: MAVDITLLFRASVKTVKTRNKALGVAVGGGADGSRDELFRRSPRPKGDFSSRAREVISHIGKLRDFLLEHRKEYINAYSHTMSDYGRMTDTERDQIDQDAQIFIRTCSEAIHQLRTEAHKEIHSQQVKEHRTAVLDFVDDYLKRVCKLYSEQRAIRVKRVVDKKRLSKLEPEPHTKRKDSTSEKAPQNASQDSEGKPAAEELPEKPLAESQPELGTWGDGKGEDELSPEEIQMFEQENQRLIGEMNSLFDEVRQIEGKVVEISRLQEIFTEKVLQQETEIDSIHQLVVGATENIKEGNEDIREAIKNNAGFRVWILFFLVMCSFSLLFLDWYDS
# Columns and labels:
# Assay in all cases: co-IP; HEK293T cells co-transfected with SLC9A9 and the partner plasmid, collected 36 h after transfection; lysed in 50 mM Tris-HCl pH 7.4, 1 mM EDTA, 150 mM NaCl, 1% Triton; protein A/G Plus-Agarose and 3 ug antibody, 12 h at 4 C, 5 washes; immunoblot; some samples with amiloride treatment (interaction inhibited)
# Esyt1 (mouse) = target: T1, Esyt1 (mouse)
# Rab7 (mouse) = Rab7 (mouse) (UniProt P51150)
# Snap47 (mouse) = target: T2, Snap47 (mouse)
# Stx18 (mouse) = target: T3, Stx18 (mouse)
# Vamp2 (mouse) = Vamp2 (mouse) (UniProt P63044)
binder,measurement,setting,value
"Endosomal solute carrier family 9 member A9 (SLC9A9) (protein, UniProt Q8BZ00 1-644) MAGQLRFTSGKDEDHFQHQGAVELLAFNFLLILTILTIWLFKNHRFRFLHETGGAMVYGLIMGLILRYATAPTDIDSGTVYNCGNLFFSPSTLLVNITDQVYEYKYQREINQHNISPHQGNAILEKMTFDPEIFFNVLLPPIIFHAGYSLKKRHFFQNLGSILTYAFLGTAISCVVIGLIMYGFVKAMVHAGQLKSGDFHFTDCLFFGSLMSATDPVTVLAIFHELHVDPDLYTLLFGESVLNDAVAIVLTYSISIYSPKENPNAFDTAAFFQSVGNFLGIFAGSFAMGSAYAVVTALLTKFTKLREFPMLETGLFFLLSWSAFLSAEAAGLTGIVAVLFCGVTQAHYTYNNLSSDSKLRTKQLFEFMNFLAENVIFCYMGLALFTFQNHIFNALFILGAFLAIFVARACNIYPLSFLLNLGRKQKIPWNFQHMMMFSGLRGAIAFALAIRNTESQPKQMMFTTTLLLVFFTVWVFGGGTTPMLTWLQIRVGVDLDESLKEEPSSQQEANKLDKNMTKTESAQLFRMWYGFDHKYLKPILTHSGPPLTTTLPAWCGPVSRLLTSPQAYGEQLKEDDVECIVNQDELAMNYQEQSPSPSSPTTKLALDQKSSGQTPGKENIYEGDLGLGGYDLKLEQTRGQPQMD",binding,Esyt1 (mouse),binds
same,binding,Rab7 (mouse),binds
same,binding,Snap47 (mouse),binds
same,binding,Stx18 (mouse),binds
same,binding,Vamp2 (mouse),no binding

# Source: PMC12537989
